Data taken from publication PMC4336329 (PLoS ONE, 2015).
In all, about 310,000 compounds went through this assay and about 14,000 (4.5%) showed an effect of 50% or more. The effect is printed as a negative number. The list shows a part of the results.

Each compound was assayed against human ether-à-go-go-related gene (hERG) potassium channel (human, UniProt Q12809) (assay: primary screen, population patch clamp on CHO cells stably expressing hERG).
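Also: peak tail current of the secondary pulse compared with the same well before compound.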

Sequence of human ether-à-go-go-related gene (hERG) potassium channel (Q12809 whole entry, looked up): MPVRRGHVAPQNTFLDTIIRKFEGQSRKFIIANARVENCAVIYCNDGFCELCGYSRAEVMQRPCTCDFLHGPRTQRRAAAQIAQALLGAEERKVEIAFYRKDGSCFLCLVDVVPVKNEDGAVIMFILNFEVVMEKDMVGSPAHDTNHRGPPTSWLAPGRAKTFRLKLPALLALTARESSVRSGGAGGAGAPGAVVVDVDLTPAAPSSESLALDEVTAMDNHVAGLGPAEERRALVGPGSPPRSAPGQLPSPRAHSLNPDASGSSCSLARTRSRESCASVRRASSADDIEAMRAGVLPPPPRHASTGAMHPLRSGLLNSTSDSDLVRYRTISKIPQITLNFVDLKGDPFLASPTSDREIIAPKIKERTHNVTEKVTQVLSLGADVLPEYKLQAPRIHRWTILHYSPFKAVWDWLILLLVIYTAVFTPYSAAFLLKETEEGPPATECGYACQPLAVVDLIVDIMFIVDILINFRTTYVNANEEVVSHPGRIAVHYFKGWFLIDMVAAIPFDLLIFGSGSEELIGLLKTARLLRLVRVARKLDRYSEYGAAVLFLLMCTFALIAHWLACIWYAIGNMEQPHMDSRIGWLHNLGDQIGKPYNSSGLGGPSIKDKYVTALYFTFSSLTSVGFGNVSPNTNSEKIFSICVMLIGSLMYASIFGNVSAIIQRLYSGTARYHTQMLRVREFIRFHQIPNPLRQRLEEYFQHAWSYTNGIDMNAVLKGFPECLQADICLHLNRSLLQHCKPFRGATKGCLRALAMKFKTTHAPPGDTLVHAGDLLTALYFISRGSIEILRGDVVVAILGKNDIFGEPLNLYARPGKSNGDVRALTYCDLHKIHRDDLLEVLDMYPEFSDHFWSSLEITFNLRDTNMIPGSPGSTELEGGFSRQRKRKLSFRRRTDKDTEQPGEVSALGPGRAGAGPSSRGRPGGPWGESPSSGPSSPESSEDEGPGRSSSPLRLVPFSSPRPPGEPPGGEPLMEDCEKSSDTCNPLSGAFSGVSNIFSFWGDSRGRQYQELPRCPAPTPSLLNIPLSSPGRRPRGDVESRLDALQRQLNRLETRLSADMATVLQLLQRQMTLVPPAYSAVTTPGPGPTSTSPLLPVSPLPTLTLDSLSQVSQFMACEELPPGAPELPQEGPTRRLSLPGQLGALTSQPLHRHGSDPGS

| Compound | hERG current change (%, negative = inhibition) at 10uM [%] |
| --- | --- |
| O=C(Nc1ccccc1)c1ccc(NCC2CCCO2)c([N+](=O)[O-])c1 (stereo not shown) | -2.42 |
| CCCN(CCC)CCCOC(=O)c1ccc(Cl)cc1Cl.Cl | -70.1 |
| COc1cccc2sc(N3CCN(C(=O)c4cccs4)CC3)nc12 | -14.3 |
| CCCc1nc2n[nH]c(N)c2c2c1CCC2 | -8.87 |
| Clc1ccc(SCCCN2CCCCC2)cc1.O=C(O)C(=O)O | -76 |
| Cc1cccc(-n2c(SCC(N)=O)nnc2-c2ccccn2)c1C | 1.28 |
| CC#CCCc1nc2ccccc2c(=O)n1N | 15.9 |
| Cc1nn(C)cc1CN1CCCC(C(=O)c2ccc(-c3ccccc3)c(F)c2)C1 (stereo not shown) | -15.3 |
| CCOc1ccc(N2CSC(=S)N(c3ccc(OCC)cc3)C2)cc1 | 2.45 |
| CCOc1ccc(NC(=O)CC2C(=O)N(C)C(=S)N2CCCc2ccccc2)cc1 (stereo not shown) | -12 |
| CNc1cccccc1=S | 5.49 |
| CCc1nc2cc([N+](=O)[O-])c([N+](=O)[O-])cc2[nH]1 | -14.5 |
| CC(C(=O)Nc1ccccc1C(=O)N1CCCC1)n1nnc2ccccc21 (stereo not shown) | -0.39 |
| CN1CCNC(=O)C1CC(=O)NCCc1ccccc1F (stereo not shown) | 13.4 |
| CC1CC(C)CN(CC(=O)NNC(=O)COc2ccc(Cl)cc2)C1 (stereo not shown) | -25 |
| NC(=O)c1ccccc1N/C=C/C(=O)c1ccc(Cl)cc1 | 11.2 |
| O=C(CC1C(=O)NCCN1CC(c1ccccc1)c1ccccc1)NCC1CCOCC1 (stereo not shown) | 6.24 |
| COc1ccc(OCCC(=O)Nc2ccc(S(N)(=O)=O)cc2)cc1 | 5.19 |
| CCOC(=O)N1CCN(C(=O)Cc2ccc(Cl)cc2)CC1 | -0.647 |
| COC(=O)C(NC(=O)Nc1ccccc1OC)C(C)C (stereo not shown) | 15.9 |
| Cc1ccc(NCc2ccccc2O)cc1C | 13.1 |
| O=S(=O)(NCC1CCCO1)c1ccc(S(=O)(=O)N(Cc2ccc(F)cc2)Cc2ccccn2)cc1 (stereo not shown) | -3.76 |
| N#CCC(=O)N/N=C/c1ccc(OCc2ccccc2)cc1 | 11.3 |

| Compound | hERG current change (%, negative = inhibition) at 10uM [%] |
| --- | --- |
| O=C(Nc1ccc(F)cc1)C1CCC(CNc2c(N3CCCCC3)c(=O)c2=O)CC1 (stereo not shown) | 6.72 |
| CCOc1cc(N2CCOCC2)c(OCC)cc1NC(=O)COC(=O)/C=C/c1ccc(OC(F)F)cc1 | -0.839 |
| CCOCCSc1nc2c(c(=O)[nH]c(=O)n2C)n1CCCc1ccccc1 | -26.2 |
| CCOC(=O)c1ccc(CN(Cc2ccc(C)cc2)S(=O)(=O)c2cccc([N+](=O)[O-])c2)cc1 | 2.59 |
| Oc1ccc(C=Nc2ccccc2-c2nc3ccccc3[nH]2)c(O)c1 | -10 |
| Cc1cc(C)nc(N/N=C/c2ccco2)n1 | 6.04 |
| O=C1CCCN1c1ccc(S(=O)(=O)NCCc2ccc(Cl)cc2)cc1 | -13.6 |
| COC(=O)CN1C(=S)N(C)C(=O)C1CC(=O)Nc1ccccc1 (stereo not shown) | -2 |
| Nc1ccncc1 | 5 |
| COc1ccc(CNC(=O)CN(Cc2ccccc2F)C(=O)c2csnn2)cc1 | -32.7 |
| CC12CCC(=O)N1C(C(=O)NCCN1C(=O)S/C(=C\c3ccc(OC(F)F)cc3)C1=O)CS2 (stereo not shown) | -27.8 |
| S=C(N/N=C/c1ccccc1)N1CCOCC1 | 10.7 |
| O=C(Nc1ccsc1C(=O)N1CCCCCC1)c1ccccc1 | -21.1 |
| CC(=O)c1cccc(NC(=O)C(C)OC(=O)Cc2c[nH]c3ccccc23)c1 (stereo not shown) | -2.32 |
| CCC1CCC/C1=N\NC(=O)c1cc(C)[nH]n1 (stereo not shown) | 4.17 |
| Cc1ccc(NC(=O)c2ccco2)cc1C | -16.5 |
| CC(NC(=S)N1CCOCC1)c1ccccc1 (stereo not shown) | 7.19 |
| CC(C)CNC(=S)N1CCC(NC(=O)C23CC4CC(CC(C4)C2)C3)CC1 | -7.73 |
| COc1ccc(/C=C2\SC(=S)N(NC(=O)c3csc4c3CCCC4)C2=O)cc1 | -4.99 |
| NC(=O)c1nsc(C(=O)N(c2ccccc2)C(C(=O)NC2CCCC2)c2cccs2)c1N (stereo not shown) | 9.77 |
| O=C(c1ccc(N2CCCC2)c([N+](=O)[O-])c1)N1CCN(CCO)CC1 | -5.39 |
| Clc1ccccc1N=C1NN=C(c2cccs2)CS1 | -8.59 |
| C=CCNC(=S)N/N=C/c1ccc(N(CC)Cc2ccccc2)cc1 | 27.2 |

| Compound | hERG current change (%, negative = inhibition) at 10uM [%] |
| --- | --- |
| COc1ccc(NC(=O)CSc2nc3ccccc3c(=O)n2CCCN2CCOCC2)c(OC)c1 | -34.6 |
| Cc1ccc(S(=O)(=O)Cn2nnnc2C(C(C)C)N2CCC(O)CC2)cc1 (stereo not shown) | 13.7 |
| CCC1C(=O)N=C(SCC(=O)Nc2ccc(S(N)(=O)=O)cc2)NC1=O (stereo not shown) | 7.08 |
| C=C(C)C(=O)Nc1cccc(C2=NOC3(C2)C[C@H](C(N)=O)N(C(=O)COc2ccc(Cl)cc2)C3)c1 (stereo partly shown) | -2.21 |
| Cc1ccc(S(=O)(=O)CCC(=O)OCc2ccc(Cl)cc2)cc1 | 3.3 |
| O=C(O)/C=C/C(=O)NC1CC1 | 41.9 |
| Cc1noc(C)c1Cn1nc(C(=O)O)c2ccccc2c1=O | -9.42 |
| Cc1nc(CCNC(=O)Cc2ccc(Cl)cc2)cs1 | 3.38 |
| Oc1ccc(C[C@H]2CNCCN2CCC23CC4CC(CC(C4)C2)C3)cc1 | -11.7 |
| CCNC(=S)Nc1ccc(Cl)cc1Cl | -14 |
| COc1ccccc1NC(=O)CC1Nc2ccccc2NC1=O (stereo not shown) | 13.2 |
| Cc1cc(C)c(NC(=O)c2c[nH]c(=S)n2-c2ccc(F)cc2)c(C)c1 | 5.97 |
| CCn1c(SCC(=O)Nc2cc(C)on2)nnc1-c1ccc(C)cc1 | 14.5 |
| Cn1nc(C(F)(F)F)c(C#N)c1N1CCN(c2cccc(C(F)(F)F)c2)CC1 | 3.01 |
| COc1cccc(N(CC(=O)NC2CCCCC2)C(=O)c2snc(C(N)=O)c2N)c1 | -7.28 |
| CCc1ccc(-c2cc(C)no2)cc1S(=O)(=O)N1CCN(c2ccc(OC)cc2)CC1 | 15.3 |
| CCNc1nc(NCC)n2c(SCC(=O)Nc3ccccc3F)nnc2n1 | -28.4 |
| CCOC(=O)c1c(C)[nH]c(C(=O)OCC(=O)c2ccc(OC)cc2OC)c1C | 1.08 |
| O=Cc1ccc(-n2cc(C=O)c3ccccc32)cc1 | 9.63 |
| COc1nc(-c2ccc(C)cc2)ccc1-c1noc(-c2ccco2)n1 | 9.52 |
| O=[n+]1cc(-c2cccc3ccccc23)n([O-])c2c1CCC2 | -4.44 |
| Cc1ccc(SC(C)C(=O)N2CCCC2)cc1 (stereo not shown) | 5.92 |
| CN(C)S(=O)(=O)c1ccc(C(=O)NCc2nnc(SCC(=O)N3CCCC3)o2)cc1 | 14.1 |

| Compound | hERG current change (%, negative = inhibition) at 10uM [%] |
| --- | --- |
| CCCOc1ccc([C@@H]2C3CN(C(=O)OCC)CC=C3C(C#N)=C(N)C2(C#N)C#N)cc1OC (stereo partly shown) | 8.84 |
| CCC(CC)C(=O)Nc1cc(C(=O)NCCc2ccccc2)ccc1Cl | -8.24 |
| C/C(=C\C=C\c1ccccc1)C(=O)c1c(C)cc(C)[nH]c1=O | 17.7 |
| CN(CC(=O)Nc1ccc(F)cc1)C(=O)c1ccc(-c2ccc(Cl)cc2)o1 | 0.0243 |
| COc1ccc(C(=O)Nn2c(CCC(=O)O)ccc2-c2ccc(C)cc2)cc1OC | 14.5 |
| COc1ccc(-c2csc(NC(=O)C3CCN(c4ncnc5sc(C)c(C)c45)CC3)n2)cc1OC | 17.4 |
| COc1ccc(S(=O)(=O)NC2CCCCC2)cc1-n1cnnn1 | -8.45 |
| CC/C(C)=C1\SC(N2CCOCC2)=NC1=O | 10.5 |
| Cn1c(SCc2nnc3n2CCCCC3)nc2ccccc21 | 3.08 |
| CC(C)(C)c1cc(-c2n[nH]c(=S)n2-c2ccc(Cl)cc2)n[nH]1 | 17.3 |
| CCC(Sc1nc2ccsc2c(=O)n1-c1ccc(Cl)c(C)c1)C(=O)NCc1ccco1 (stereo not shown) | -16.8 |
| CCOC(=O)c1oc2c(C)c(O)ccc2c(=O)c1-c1nncn1-c1ccccc1 | 16.1 |
| COc1ccc(C2(C(=O)NCCCN3CCOCC3)CCOCC2)cc1.Cl | 10.6 |
| CCN(CC)C(=O)/C=C/c1ccc(OC)c(S(=O)(=O)N2CCCCC2)c1 | 2.81 |
| CCc1ccc(NC(=O)C(=O)NCCN2CCN(Cc3ccc([N+](=O)[O-])cc3)CC2)cc1 | -72.5 |
| COc1cccc(-n2c(C)nnc2SCC#N)c1 | -11.7 |
| CC1CN(C(=O)Cc2ccc(-c3ccccc3)cc2)CC(C)O1 (stereo not shown) | 0.547 |
| CCOc1ccc(NC(=O)CN(C)C(=O)c2c(-c3ccccc3)noc2C)cc1OCC | -14.5 |
| O=C1N(CN2CCN(Cc3ccccc3)CC2)c2ccccc2C12OCCCO2 | 8.4 |
| CNC(=O)c1sc(-c2ccccn2)nc1C | 21.4 |
| O=C(NCc1cccc(Cl)c1)C1=CC=CN2CCS(=O)(=O)N=C12 | -5.54 |
| COc1ccc(N(Cc2ccco2)C(=O)c2ccccc2F)cc1OC | 1.11 |
